Source: PubChem BioAssay AID686979 (National Center for Advancing Translational Sciences (NCATS), 2013)
Where “and” joins values, the source holds several entries; their conditions need not be identical. Equal values may be shown once. Hit rate of the full screen: of about 420,000 compounds, about 50,000 (12%) were called active. Inconclusive results, whose numbers are uncertain, are shown with a selection of clear calls. Calls come from the whole dose curve; as a rule, active = well fitted inhibition curve with a large enough effect; inconclusive = small, poorly fitted or top-dose-only effect; inactive = flat fitted curve, though single readings scatter. Potencies of inconclusive entries are doubtful fits and often do not repeat.

Assay: qHTS for Inhibitors of human tyrosyl-DNA phosphodiesterase 1 (TDP1): qHTS in cells in presence of CPT; note: nearly all actives have a fitted effect of over 55% in size
Settings: chicken DT40 Tdp1-/-;hTDP1 cells + 20 nM CPT, ATP luminescence, 48 h; activity change, negative = growth inhibition: at 46.2 µM (top of the series) unless noted
In short: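 Cell growth measured by CellTiter-Glo luminescence after a minimum 48 h, 37 C compound exposure with 20 nM CPT in Tdp1-knockout DT40 cells stably expressing hTDP1, seeded 400/well; qHTS titration format.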
% is set by controls: 0 for no effect and ±100 for the full control effect; potency is the fitted concentration of half-maximal effect; tags give direction and shape of the fitted curve.

SMILES	Potency	activity change, negative = growth inhibition
O=C(CN1C(=O)NC2(CCCCC2)C1=O)N1CCN(S(=O)(=O)c2ccc(Cl)s2)CC1	inconclusive: 29.1 µM [inhibitor, single point]	
CCC(C)NC(=O)C1CCCN(C(=O)Nc2ccc(F)cc2)C1 (stereo not given)	inactive	
Cc1cc2c(cc1S(=O)(=O)Nc1cccc(C)c1C)n(C)c(=O)c(=O)n2C		inconclusive: -39.1% [inhibitor]
C/C(CC(=O)Nc1ccc(N(C)C)cc1)=N\NC(=O)C(=O)NCc1ccccc1	inactive	
CCCCn1nnc(NC(=S)NC(=O)c2ccc(-c3cccc(Cl)c3Cl)o2)n1	active: 10.3 µM	
O=C(/C=C/c1ccccc1)NCCO	inconclusive: 26.6 µM [inhibitor, single point]	
COc1ccccc1C(=O)Nc1ccc(C)cc1C(=O)c1ccccc1	inactive	
C/C(=N\Nc1ccccn1)c1ccc(C(C)C)cc1		inconclusive: -34.4% [inhibitor]
Cc1ccc(S(=O)(=O)NCc2nc(-c3ccccc3)no2)cc1	inactive	
CN(C)c1ccc(/C=C/C(=O)c2ccc3c(c2)OCO3)cc1	active: 23.1 µM	
N#C/C(=C(/O)c1ccco1)c1nc2ccccc2s1	inconclusive: 17.8 µM [inhibitor, single point] and inconclusive: 25.9 µM [inhibitor, single point]	
NC(N)=NC(N)=Nc1cccc2ccccc12	inconclusive: 29.1 µM [inhibitor, single point]	
Cc1cc2c(cc1C)N(C(=O)CSC1=NCCS1)C(C)(C)c1ssc(=S)c1-2	inconclusive: 29.1 µM [inhibitor, single point]	
O=C(NNS(=O)(=O)c1ccc(C(F)(F)F)cc1)c1cnn(-c2ccccc2)c1C(F)(F)F	inactive	
O=C(O)C1Nc2c(C(=O)N3CCOCC3)cccc2C2C=CCC12 (stereo not given)	inconclusive: 29.1 µM [inhibitor, single point]	
O=C(COc1ccccc1)n1nc(-c2ccc(Cl)cc2)nc1NCc1ccco1	inconclusive: 18.4 µM [inhibitor, partial curve]	
CCN(CC)S(=O)(=O)c1ccc(Cl)c(NC(=O)CSc2nnc(-c3cccs3)o2)c1	inconclusive: 23.1 µM [inhibitor, single point]	
O=C(c1ccccc1Br)N1CCc2c([nH]c3ccccc23)C1	inactive	
COc1ccc(N(CC(=O)N2CCN(c3cccc(C)c3)C(C)C2)S(=O)(=O)c2c(C)n[nH]c2C)cc1 (stereo not given)	inconclusive: 29.1 µM [inhibitor, single point]	
O=C(NC1CC2CCCC(C1)N2Cc1ccccc1)c1cccc(Cl)c1 (stereo not given)	inactive	
CCC1(c2ccccc2)NC(=O)N(CC(=O)Nc2ccc(N3CCCC3)cc2C)C1=O (stereo not given)	inactive	
O=C(CNC(=O)c1ccco1)N/N=C/c1ccc(C(=O)O)cc1	inactive	
O=C(Nc1cccnc1)c1ccc(S(=O)(=O)c2ccccc2)cc1	inactive	
CC(c1ccccn1)N(Cc1ccco1)C(=S)Nc1cccc(F)c1 (stereo not given)	inactive	

SMILES	Potency	activity change, negative = growth inhibition
O=C(Nc1nnc(-c2ccco2)o1)c1ccc2ccccc2c1	inconclusive: 29.1 µM [inhibitor, partial curve, poor fit]	
COc1cc(/C=C/C(=O)OC(C)C(=O)c2ccccc2)cc(OC)c1OC (stereo not given)	active: 20.6 µM	
Cn1c(=O)c(C(=O)NNC(=O)c2ccccc2Cl)c(O)c2ccccc21	inconclusive: 23.1 µM [inhibitor, single point]	
CN(C)CCCn1c2c3ccccc3ccc2c2oc(=O)c3ccccc3c21	active: 3.55 µM and active: 2.59 µM	
CC(=O)Nc1ccc(NC(=O)c2cc(-c3cc(F)ccc3OCC3CCCO3)n[nH]2)cc1 (stereo not given)	inconclusive: 18.4 µM [inhibitor, single point]	
COc1ccc(NC(=O)N2CCC(n3nnc4cc(C)ccc43)CC2)cc1	inactive	
NC(=O)CC[C@H](NC(=O)c1ccc(F)cc1)C(=O)OCC(=O)NCc1ccc(F)cc1	inconclusive: 29.1 µM [inhibitor, single point]	
NC(=O)c1oc2ccccc2c1NC(=O)C1COc2ccccc2O1 (stereo not given)	inactive	
Cc1ccc(S(=O)(=O)N2CCCCC2)cc1NC(=O)c1cc2ccccc2o1	inconclusive: 29.1 µM [inhibitor, single point]	
N/C(=N\c1nc2ccccc2o1)NC(=O)c1ccccc1Br	inconclusive: 18.4 µM [inhibitor, single point]	
C=CCn1c(-c2csc3c2CCC(C)C3)n[nH]c1=S (stereo not given)	inconclusive: 32.6 µM [inhibitor, single point]	
CCCc1cc(=O)[nH]c(SCC(=O)Nc2ccc(C(=O)Nc3ccccc3OC)cc2)n1	inconclusive: 29.1 µM [inhibitor, single point]	
O=C1C(c2cc(=O)c3ccccc3[nH]2)=C(O)c2ccccc21	inconclusive: 29.1 µM [inhibitor, single point]	
CCN(CC)S(=O)(=O)c1ccc(NN=C2CCN(C)CC2)c([N+](=O)[O-])c1	inactive	
CC1=C(C(=O)N(C(C)C)C(C)C)CC(CC(=O)NCCc2ccccn2)C(=O)N1Cc1ccc(F)cc1 (stereo not given)	inactive	
CCN1C(=O)/C(=C2/C=CC=CN2C)OC1=S	inconclusive: 18.4 µM [inhibitor, single point]	
O=C(NCC(c1cccnc1)N1CCN(c2ccccc2F)CC1)c1ccccc1 (stereo not given)	inconclusive: 29.1 µM [inhibitor, single point]	
COc1ccc(CCNC(=S)NC2CCN(Cc3ccccc3)CC2)cc1	inconclusive: 23.1 µM [inhibitor, single point]	
CC(=O)c1sc(-c2ccccc2)cc1NS(=O)(=O)c1ccc(C)cc1	inconclusive: 18.4 µM [inhibitor, single point]	
Cc1csc(NC(C)c2nc3cc(C(F)(F)F)ccc3n2CCCO)n1 (stereo not given)	inactive	
O=C(O)/C=C/C(=O)NNC(=O)c1cc(-c2ccccc2)n[nH]1	inconclusive: 29.1 µM [inhibitor, single point]	
CC(=O)N1CCC2(CC1)CN(C(=O)Nc1cccc(C#N)c1)C2	inactive	
Cc1cccc(NC(=O)CSc2n[nH]c(-c3ccncc3)n2)c1C	active: 11.6 µM	
O=C(CCS(=O)(=O)c1ccccc1)Nc1ccccn1	inactive	

SMILES	Potency	activity change, negative = growth inhibition
O=C(CSc1nnc(-c2ccccc2)n1-c1ccccc1)c1cccs1	inconclusive: 29.1 µM [inhibitor, partial curve, poor fit]	
Cc1cccc(NC(=O)NC2(C)CCS(=O)(=O)C2)c1 (stereo not given)	inactive	
Cc1ccc(C)c(NC(=O)CSc2nc3[nH]ncc3c(=O)[nH]2)c1	inconclusive: 16.4 µM [inhibitor, single point]	
CSc1ccccc1NC(=O)COC(=O)Cn1cc(C(F)(F)F)ccc1=O	inconclusive: 18.4 µM [inhibitor, partial curve]	
COc1cccc(NC(=O)CCC2CCN(C(=O)c3c(C)noc3C)CC2)c1	inconclusive: 29.1 µM [inhibitor, single point]	
CCOC(=O)Cc1csc(NC(=O)c2cc3c(s2)CCCC3)n1		inconclusive: -33.6% [inhibitor]
CSc1cnn(Cc2ccccc2)c(=O)c1SCc1ccccc1	inconclusive: 29.1 µM [inhibitor, single point]	
COc1cccc(-c2cnc3c(NC(C)=O)cc(-c4ccncc4)cn23)c1	inconclusive: 23.1 µM [inhibitor, partial curve, poor fit]	
CCc1ccc(C2c3[nH]c4ccccc4c3CCN2C(=O)CN2CCN(CC)CC2)cc1 (stereo not given)	inconclusive: 16.4 µM [inhibitor, single point]	
CC(C)(C)OC(=O)NC(Cc1ccccc1)C(=O)NCCCC(=O)O (stereo not given)	inactive	
O=C(NCCc1ccccc1)C1(c2cccs2)CCOCC1	inactive	
COc1ccc(CNC(=O)Nc2nnc([C@@H]3C[C@H](O)[C@@H](CO)O3)s2)cc1	inactive	
CC(=O)/C(N=Nc1ccc(SC(F)F)cc1)=C(\C)O	inactive	
O=S1(=O)C=C[C@@H](COCc2ccccc2)N1Cc1ccc(Br)cc1	inconclusive: 29.1 µM [inhibitor, single point]	
Cn1c(=O)c2c(nc(N3CCN(c4ccccc4)CC3)n2CCCc2ccccc2)n(C)c1=O	active: 8.2 µM	
COc1cc(OC)cc(-c2nc3nc(C)c(CCC(=O)Nc4ccc(F)cc4F)c(C)n3n2)c1	inconclusive: 20.6 µM [inhibitor, single point]	
COc1cccc(-c2cc(NCc3cccs3)ncn2)c1	inconclusive: 8.2 µM [inhibitor, partial curve, poor fit]	
CCc1nn(C(C)C(=O)N2CCN(c3cccc(C(F)(F)F)c3)CC2)c(=O)c2cc3occc3n12 (stereo not given)	inconclusive: 18.4 µM [inhibitor, single point]	
CCC1=C(OC(=O)N(CC)CC)N2C(=O)OC(=NCCc3c[nH]c4ccccc34)[C@]2(C)[C@H]2C1=CC[C@H]1C(=O)N(C)C(=O)[C@H]12	inconclusive: 29.1 µM [inhibitor, single point]	
COc1ncc2nc(-c3ccc(Cl)cc3)c(=O)n(C[C@H]3CCCO3)c2n1	inactive	
CC(CN(C)C)CN1c2ccccc2Sc2ccccc21 (stereo not given)	inconclusive: 29.1 µM [inhibitor, single point] and inconclusive: 20.6 µM [inhibitor, single point]	
COc1cccc(C(=O)N2c3nc(-c4ccco4)nn3C3(CCCCC3)[C@@H]3CCCC[C@@H]32)c1	inconclusive: 25.9 µM [inhibitor, single point]	
